Out of some 310,000 compounds screened, about 14,000 (4.5%) showed an effect of 50% or more. Effects have a minus sign here. Some of the results follow.
What follows are compounds tested against human ether-à-go-go-related gene (hERG) potassium channel (human, UniProt Q12809) (assay: primary screen, population patch clamp on CHO cells stably expressing hERG).
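Further: peak tail current of the secondary pulse compared with the same well before compound.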

human ether-à-go-go-related gene (hERG) potassium channel, sequence (Q12809 whole entry, looked up): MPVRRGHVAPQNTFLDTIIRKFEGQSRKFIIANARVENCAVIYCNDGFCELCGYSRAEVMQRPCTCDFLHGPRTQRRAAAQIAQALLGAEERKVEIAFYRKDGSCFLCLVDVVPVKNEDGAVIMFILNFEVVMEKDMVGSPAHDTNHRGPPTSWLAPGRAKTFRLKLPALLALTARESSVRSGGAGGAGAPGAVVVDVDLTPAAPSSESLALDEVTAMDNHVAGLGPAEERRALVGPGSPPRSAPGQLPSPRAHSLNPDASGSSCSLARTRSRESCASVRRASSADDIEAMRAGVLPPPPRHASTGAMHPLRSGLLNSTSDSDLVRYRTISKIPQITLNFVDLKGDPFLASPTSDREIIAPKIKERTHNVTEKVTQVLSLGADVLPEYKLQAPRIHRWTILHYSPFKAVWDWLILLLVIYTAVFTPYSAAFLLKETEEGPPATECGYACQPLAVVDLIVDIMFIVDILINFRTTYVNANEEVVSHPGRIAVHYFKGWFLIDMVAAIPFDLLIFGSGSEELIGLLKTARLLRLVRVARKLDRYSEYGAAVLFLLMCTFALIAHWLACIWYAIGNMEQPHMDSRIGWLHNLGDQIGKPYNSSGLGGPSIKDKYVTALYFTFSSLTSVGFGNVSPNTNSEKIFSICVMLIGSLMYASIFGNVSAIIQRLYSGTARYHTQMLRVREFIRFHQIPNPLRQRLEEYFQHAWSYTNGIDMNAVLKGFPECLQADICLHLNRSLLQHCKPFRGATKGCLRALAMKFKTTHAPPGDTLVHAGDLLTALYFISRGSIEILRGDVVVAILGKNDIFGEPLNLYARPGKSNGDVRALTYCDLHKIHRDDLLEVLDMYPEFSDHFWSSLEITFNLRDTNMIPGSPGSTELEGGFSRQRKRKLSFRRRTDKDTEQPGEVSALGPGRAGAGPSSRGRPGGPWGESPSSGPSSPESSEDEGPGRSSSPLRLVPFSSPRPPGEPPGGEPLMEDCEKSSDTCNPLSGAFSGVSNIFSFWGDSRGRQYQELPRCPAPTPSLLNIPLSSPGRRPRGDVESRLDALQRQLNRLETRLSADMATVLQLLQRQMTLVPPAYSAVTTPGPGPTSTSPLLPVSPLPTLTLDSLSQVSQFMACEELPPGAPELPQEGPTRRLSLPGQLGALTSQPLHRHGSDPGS

SMILES	hERG current change (%, negative = inhibition) at 10uM [%]
CC(CNS(=O)(=O)c1cc(Cl)ccc1Cl)CN(C)C (stereo not drawn)	12.2
C/C(CCS(=O)(=O)c1ccccc1)=N/O	8.64
Cc1ccccc1N1CC(C(=O)Nc2nnc(SCc3ccccn3)s2)CC1=O (stereo not drawn)	13.4
O=C(c1ccc(F)cc1F)N1CCCC(c2nc(-c3ccc(F)cc3)no2)C1 (stereo not drawn)	-18.5
CCOc1ccc(-n2cc(-c3ccc(OC)c(OC)c3)[nH]c2=S)cc1	13.1
CN(C)C(=O)CSc1nnc(Cc2ccccc2)n1Cc1ccco1	-0.266
O=C(CC1SCCNC1=O)Nc1cccc(C(F)(F)F)c1 (stereo not drawn)	-23.5
CCCNC(=O)c1cccc(Cn2cc(Br)c([N+](=O)[O-])n2)c1	-20.2
CCCn1c(=O)c(C(=O)NCc2ccncc2)c(O)c2ccccc21	-63
COc1ccc2oc(C(=O)N3CCN(C(c4ccccc4)c4ccccc4)CC3)c(C)c2c1	-23.4
CCOc1cc(/C=N/NC(=O)c2ccc(CN3CCOCC3)cc2)ccc1OCc1ccccc1	-18.2
O=C(CNC(=O)c1ccccc1)N/N=C/c1cc(Br)ccc1O	-3.75
S=C(NCc1ccccc1Cl)Nc1ccccc1Cl	-8.63
Cc1oc2cc3oc(=O)c(CC(=O)NCC(=O)N[C@@H](C(=O)O)c4ccccc4)c(C)c3cc2c1C	9.65
Cc1c(Br)c([N+](=O)[O-])nn1C(C)C(=O)NCc1cccnc1 (stereo not drawn)	-14.6
O=C(O)C1Nc2ccc(Br)cc2C2C=CCC12 (stereo not drawn)	8.3
COC(=O)CCCC(=O)NC1CC(C)(C)Cc2c1cnn2-c1ccc(C)cc1 (stereo not drawn)	-24.7
O=C(O)C(=O)O.O=S(=O)(c1ccccc1F)N1CCN(Cc2nc3ccccc3[nH]2)CC1	-13.2
O=[N+]([O-])c1ccc(C[n+]2cccc(O)c2)cc1.[Br-]	-14.9
CN1CCN(c2oc(Cc3cccc4ccccc34)nc2C#N)CC1	-9.75
CCC(Oc1cccc(C)c1)C(=O)Nc1ccccc1C(=O)N1CCOCC1 (stereo not drawn)	2.61
CCOc1ccc(OCC)c(NC(=O)CNS(=O)(=O)c2cccs2)c1	-1.5
CC(=O)c1ccc(OCC(C)Oc2ccc(C#N)cc2)cc1 (stereo not drawn)	-62.8

SMILES	hERG current change (%, negative = inhibition) at 10uM [%]
CCN(CC(=O)Nc1ccccc1C(F)(F)F)C(=O)CCc1nc2ccccc2c(=O)[nH]1	12.5
COc1ccc(NC(=O)/C(C#N)=C/c2ncc([N+](=O)[O-])n2C)c(OC)c1	5.21
O=[N+]([O-])c1ccccc1/C=N/n1c(C2CCCCC2)n[nH]c1=S	-5.59
c1ccc(NC2=NCCN2CCC2CCCC2)cc1	-24
O=C(CSc1nnc(-c2ccc(Br)cc2)o1)Nc1cccc2ccccc12	-3.23
O=Cc1c(OCc2ccccc2)ccc2ccccc12	7.01
CN(C)N=Nc1ccc(-c2cn(Cc3ccccc3)cn2)cc1	11
CCNC(=O)C(=O)NCC(c1cccs1)S(=O)(=O)c1ccc(C)cc1 (stereo not drawn)	6.71
O=C(N/N=C/c1ccccc1)c1ccc(NC(=O)c2ccc(F)cc2)cc1	11.7
COc1ccc(S(=O)(=O)Nc2ccc3c(c2)COC3=O)cc1OC	-18.7
CCC(C)n1c(S(=O)(=O)O)nc2ccccc21 (stereo not drawn)	-0.777
CN1CCN(c2nc(Nc3cccc(C(F)(F)F)c3)nc(N3CCOCC3)n2)CC1	-60
CCc1nc(N(CC)CC)c2oc3ccccc3c2n1.Cl	-21.1
COc1ccc(C(=O)Nc2nc(CC(=O)NCCc3ccccc3)cs2)cc1	-23.4
COc1ccccc1OCCC(=O)N1CCN(c2ccccc2OC)CC1	3.23
CC(CC(=O)NCc1ccccc1)C1CCCO1 (stereo not drawn)	19.3
Nc1ccc(N=Nc2ccccc2)cc1	28.3
NNC(=O)COc1ccc2oc3c(c2c1)CCCC3	19.9
Cn1cccc1Cc1nnc(SCC(=O)NCc2ccccc2)n1-c1ccc(F)cc1	-19.5
O=C(Nc1ccccc1-c1nc2ccccc2[nH]c1=O)c1cccs1	2.16
CCCC(C)NC(=O)COC(=O)c1ccc(Cl)c(S(N)(=O)=O)c1 (stereo not drawn)	8.02
CC(C)=CCN1CCN(Cc2ccc(C)s2)CC1CCO (stereo not drawn)	-16.1
CC(NC(=O)C1CCN(C(=O)c2cccs2)CC1)c1ccc(S(N)(=O)=O)cc1 (stereo not drawn)	3.01

SMILES	hERG current change (%, negative = inhibition) at 10uM [%]
CCOc1ccc(C(=O)NC(=S)Nc2ccccn2)cc1[N+](=O)[O-]	-2.48
O=C(COC(=O)c1c(Cl)cccc1Cl)Nc1cccc(S(=O)(=O)NC2=NCCCCC2)c1	-20.4
COCC(=O)Nc1sc2c(c1C(=O)OC)C(C(=O)OC)CC2 (stereo not drawn)	-4.51
Cc1csc(NC(=O)CSc2nc(=O)n(CCN(C)C)c3c2CCCC3)n1	-55.9
Cn1c(/C=C/c2ccc(Cl)cc2)nc2ccccc2c1=O	15.8
CC(C)/C=C/C(=O)N1CCCC(N2CCN(c3ccccc3F)CC2)C1 (stereo not drawn)	-33.4
Cc1cc(C(=O)NCCC2=CCCCC2)no1	-7.77
CNC(=S)N1CCN(c2cccc(OC)c2)CC1	-7.23
Cc1ccc(C)n1-c1ccc(-c2ccn[nH]2)cc1	-10
CC(C)(C)c1ccc(C(=O)NCc2ccco2)cc1	-2.98
Cc1cc(C(=O)COC(=O)COc2ccc(C#N)cc2)c(C)n1C1CC1	16.9
O=C1CC(c2ccccc2)CC(O)=C1C=NCCCO (stereo not drawn)	5.91
CCOc1ccc(NC(=O)CN(C)C(=O)c2cc(C)nc3ccccc23)cc1OCC	-16.2
COC(=O)c1ccc(NC(=O)COC(=O)C2CCC2)cc1	4.03
CCOC(=O)N1CCN(S(=O)(=O)c2ccc3c(c2)CCN3C(=O)C2CC2)CC1	-11.5
C[N+]1(CC(O)COc2ccccc2)CCN(C(=O)c2ccc([N+](=O)[O-])cc2)CC1.[I-] (stereo not drawn)	-9.95
O=C(CCN1C(=O)[C@@H]2Cc3ccccc3CN2C1=O)NCc1ccccc1	-12
COc1ccc2nc(C)cc(SCC(=O)N/N=C/c3c(OC)ccc4ccccc34)c2c1	12.8
COc1cc(NC(=O)C/C(C)=N/NC(=O)c2ccccn2)c(OC)cc1Cl	-2.91
CCOC(=O)COc1ccc(S(=O)(=O)N2CCN(c3ccc(F)cc3)CC2)cc1	-60
Cc1nn(-c2nc3ccccc3s2)c(N)c1Sc1ccc(F)cc1	7.4
O=C(COC(=O)c1ccc2ccccc2n1)NCc1ccccc1	13.7
Cn1c(NCCN2CCCCC2)cc(=O)n(C)c1=O	13.7

SMILES	hERG current change (%, negative = inhibition) at 10uM [%]
CC(C)C(NS(=O)(=O)c1ccccc1)C(=O)NC1CCCC1 (stereo not drawn)	-17.1
CCC(C)[C@H](NC(=O)N1CC(=O)Nc2ccccc21)C(=O)N[C@H](Cc1ccccc1)C(=O)O (stereo partly drawn)	4.31
CC(C)(C)NC(=O)CCCSc1nc2ccccc2s1	-24.4
CCOC(=O)c1c(Nc2ccccc2OCCOC)n[nH]c1C	1.25
O=C(Nc1ncccc1O)c1cccc(S(=O)(=O)N2CCc3ccccc32)c1	-25.2
COc1ccc(CN2CC(C(=O)N3CCOCC3)CC2=O)cc1 (stereo not drawn)	12.7
O=C(CCC1CCCCC1)Nc1cccc(C(=O)Nc2ccc(C(=O)O)cc2)c1	22.4
O=C(NCCCN1CCOCC1)c1cc(-c2ccc(Cl)c(Cl)c2)on1	-49.1
CC(C)c1nnc(NC(=O)c2cccs2)s1	6.72
CC(C)(C)n1nc2c(c1NC(=O)Cc1cccc3ccccc13)CS(=O)(=O)C2	-3.5
CCOc1nc(OCC)nc(-n2cc(-c3ccccc3)nn2)n1	3.41
CC(Oc1ccc(-c2ccccc2)cc1)C(=O)O (stereo not drawn)	18.7
CCc1ccc(C(=O)COC(=O)[C@@H](NC(N)=O)[C@@H](C)CC)cc1	-14.5
O=C(O)c1ccc(N2CCCCC2)cc1O	3.83
COc1ccccc1NS(=O)(=O)c1ccc(NN=C2CCCC2)c([N+](=O)[O-])c1	8.84
CS(=O)(=O)Nc1ccc(C2=NN(S(C)(=O)=O)C(c3ccc4nccnc4c3)C2)cc1 (stereo not drawn)	-32.8
Cc1ccc(C(=O)COC(=O)c2cnccn2)cc1C	17
COc1ccccc1C(=O)NC(=S)/C=C1/N(C)c2ccccc2C1(C)C	-10.9
COc1ccc(C)cc1N(C(=O)c1ccco1)C(C(=O)NC1CCCC1)c1ccc(N2CCOCC2)cc1 (stereo not drawn)	-5.77
COCCSc1ccccc1C(=O)NCCCn1ccnc1	-15.1
COc1ccccc1Nc1ccc(S(=O)(=O)N2CCCCC2)cc1[N+](=O)[O-]	9.03

Source: article PMC4336329 (PLoS ONE, 2015)
